# Measurements from the supplement of paper PMC3334620.
# In all, about 33,000 sequences were measured (“E-score (-0.5 to 0.5)”: median about -0.016, highest 2% from about 0.31 on). The list shows a part of the results.
# Target: Cst6 (UniProt P40535)
# Test: PBM E-score (8-mer binding enrichment) (E-score (-0.5 to 0.5)); higher = stronger / more preferred TF binding; most listed sequences are background and not binding sites
# Details: protein concentration: 200 nM; construct: GST-DNA-binding domain
# Summary of the method: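 Full-length yeast transcription factors or their DNA-binding domains, GST-tagged and expressed with PURExpress, were applied at about 100-200 nM to universal all-10-mer Agilent arrays. These arrays had been made double-stranded by primer extension on fresh or once-stripped slides. Detection used fluorescent anti-GST, normalisation used masliner, and E-scores for ungapped eight-base words pooled with reverse complements came from the Universal PBM Analysis Suite.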
row,Sequence,PBM E-score
1,GTAAAAGA,0.118
2,CGTGTACA,0.188
3,CACTTTAA,0.166
4,AGATTCGC,0.0745
5,ATACCACG,0.128
6,ATGGCGTG,0.113
7,CCTAGACG,-0.155
8,CTAATTTA,0.321
9,CACTGCAG,-0.0683
10,CGCAAGTA,0.0408
11,AACCGAAC,-0.00922
12,CCGCTCGA,-0.0821
13,CCTGTCTA,-0.164
14,CGGTGAGC,-0.227
15,ATAGTGTC,-0.00632
16,CAACTCCC,-0.0475
17,CGCTTCGC,-0.0922
18,AAGTTCAC,-0.0134
19,AGTTCACG,-0.0175
20,CCTGGCGC,-0.0314
21,CCGACAAA,0.111
22,CCGAGAAG,-0.187
23,AACCCAAT,-0.017
24,CAACCCAC,0.0355
25,CCCTGTAC,-0.296

row,Sequence,PBM E-score
1,ATTCACGG,0.197
2,GTTAAGAA,-0.0587
3,AGCTAGTG,-0.0105
4,CCTCGTGA,0.106
5,AATGGACA,0.139
6,GCGGAGAA,-0.0169
7,TGTTATAA,0.251
8,GTAAGCCA,-0.124
9,CATCATGC,0.362
10,AAGCGGAA,0.0463
11,GACGCAAC,0.173
12,AAGTCCAT,-0.23
13,ACAAGGTC,-0.0157
14,ATCCATCC,0.0553
15,ATTTCTTG,0.231
16,ATATTCTC,0.275
17,CATATGAC,0.366
18,GAGTTACA,0.115
19,CATTATGC,0.146
20,CCCATATA,-0.0342
21,GGGACACA,-0.153
22,AGTGAAAC,0.0321
23,CCCATCCG,-0.109
24,TCTGAAAA,0.0835
25,CATATAAA,0.236

row,Sequence,PBM E-score
1,GAGCCACC,-0.265
2,ATGCAAAA,0.22
3,CATCACCG,0.305
4,CGGATCTC,-0.106
5,CCTCGAAC,-0.209
6,CTCTCGGA,-0.0484
7,GCACTTCA,0.138
8,CGTATAAG,0.132
9,ATCTGACG,0.221
10,ACGACAGC,0.123
11,AATAGATT,0.152
12,CGATTAAG,0.146
13,CACCCTAG,0.0039
14,ATAATGTG,0.119
15,ATCGCATG,0.0749
16,AAGATACT,0.0395
17,AATGTGGC,-0.0637
18,ACCCTCAG,-0.198
19,GCGAGCGA,-0.0462
20,GTGTTCCA,-0.202
21,CCAAGTTC,-0.182
22,CGGCCCTA,-0.122
23,GCACCAGC,-0.176
24,GTAAACTA,0.203
25,GCCGCTCA,0.0823

row,Sequence,PBM E-score
1,ACGGGAGG,-0.251
2,CAACGAAA,0.221
3,GTTAATCA,0.282
4,ATTAGGAC,-0.166
5,TCTTACAA,0.065
6,AGTTGCGG,0.0879
7,ACGCCCTA,-0.121
8,AGCCGTGA,0.198
9,ACAGTTAA,0.0795
10,ATCCAGAC,-0.0848
11,GCACCAAA,0.0915
12,CTTAGTAC,0.0188
13,AGAGGTGA,0.18
14,AGTTAATC,0.0892
15,AGTCAACG,-0.102
16,ATGGAACG,-0.106
17,GAAAACAC,0.0904
18,CGTACCGC,0.0844
19,ACACGGGA,-0.0656
20,AACCGACA,0.037
21,CAATTTGG,-0.0563
22,GCTTGTCA,0.0869
23,CTCCCACA,-0.289
24,CACGTATG,0.204
25,CGGAATCA,0.128

row,Sequence,PBM E-score
1,GGCCTTCA,-0.116
2,AAATGGAG,0.0979
3,ACCACCCT,-0.223
4,ATCGGCAC,0.109
5,CTATGGGC,-0.186
6,CCCCGCGC,-0.148
7,GCCCGGGA,-0.25
8,AACACTTC,0.154
9,ACCGGACA,-0.303
10,CGGCTAGA,-0.038
11,CAAAGCCC,-0.188
12,AGGAGTTG,-0.0273
13,ACGTGGAC,0.0951
14,AAGCATAT,0.182
15,AACCTTCA,-0.0423
16,ATAAATTC,0.145
17,AACAAGGT,0.0571
18,AAGTCTAC,-0.2
19,CCGCACTC,0.0452
20,CGCATATC,0.0984
21,CAGGCTAC,-0.249
22,CTGGTCAC,-0.123
23,GCCCCAGA,-0.275
24,CCACACCC,-0.16
25,CATGATCG,0.0636

row,Sequence,PBM E-score
1,TACTCCCA,-0.0234
2,CATAACTC,-0.118
3,CAGGCAAC,-0.0835
4,AGCCTACC,-0.25
5,CGTGTCGA,0.137
6,GCAATAAA,0.243
7,AATATACG,-0.0439
8,AAATCCTC,-0.122
9,ATAACTCC,-0.175
10,TCGTTGAA,0.237
11,AAGGTACA,-0.0996
12,AAAAGTCA,0.125
13,CGCTAAAG,0.0348
14,ACTTGTGC,-0.176
15,CAAAGAGA,-0.111
16,AGATATGC,0.0319
17,AAGCGTCC,-0.0893
18,CAGCAGAG,-0.311
19,GCTGGCCC,-0.314
20,CTTTACAC,0.16
21,GCGCTGAC,0.176
22,CTGCACCC,-0.306
23,ATGACGGC,0.365
24,CGAGGAAA,-0.0408
25,CTATTTTC,0.0777

row,Sequence,PBM E-score
1,ATGGTCAA,0.183
2,CGCAGACA,0.0456
3,CATAGTGA,0.0205
4,CATCCCAG,-0.174
5,ATATTCCA,0.18
6,CATATACA,0.181
7,CTAGGTAC,-0.114
8,GGATGCCC,-0.274
9,ACCGAGCT,-0.126
10,GTACAGCA,-0.098
11,ATACACAT,0.166
12,ACAGATAC,0.169
13,AGGTTTTC,0.131
14,AGCCTAGG,-0.333
15,AATTCGGT,0.201
16,ACCTTAAA,-0.144
17,GGCATCAC,0.227
18,GGTATCAC,-0.131
19,ACTTAATC,-0.0224
20,ACGATTGC,0.241
21,GTCACCTA,0.289
22,GTCAGTCA,0.0935
23,CTGTATAC,-0.00687
24,CGTCCCCA,-0.229
25,GGATTTGA,-0.0111

row,Sequence,PBM E-score
1,CTCTGCAC,-0.161
2,AAAGCACT,-0.0296
3,AATACGCC,0.104
4,CCGCTATC,-0.0787
5,AAAGCGAC,-0.114
6,ATAAAAAG,0.307
7,GGGAATAA,0.0818
8,CCATCGCC,-0.209
9,CACGGTGC,-0.0177
10,ACGGGGGA,-0.113
11,ACGACCCG,-0.172
12,CCTATACA,0.0777
13,CATTATCG,0.0831
14,ATCGGTCA,-0.0288
15,GACGGTTA,-0.058
16,GAATAATA,0.244
17,ACAAGGAT,0.0852
18,CTACGTAC,0.00059
19,ACGGAACC,0.117
20,CTGGTGAA,-0.15
21,TCATTCAA,0.217
22,GGAGTGAA,-0.0454
23,GTGTCGGA,-0.138
24,TAGAAGCA,0.137
25,AGGTGTTG,0.0355

row,Sequence,PBM E-score
1,ACCGCACC,0.0061
2,AACCATAA,0.13
3,AGCACCGC,-0.284
4,AGCTGAAG,-0.136
5,CGAACCTC,0.0197
6,AACGGTGC,0.0805
7,ACTGGGCC,-0.233
8,CCCAAACC,-0.143
9,CAATAATA,0.283
10,AAGTGGAA,-0.0325
11,CAGCCTTA,-0.254
12,ATTTAAAA,0.258
13,GTCAAGAA,0.2
14,ATTGTGAC,0.244
15,GGGACCTA,-0.149
16,CGCACACG,-0.0109
17,AGAGTCTA,-0.109
18,CCCGGCAC,-0.318
19,CCCAAGTA,-0.229
